Reference: the supplement of paper PMC12217912
The other results are listed elsewhere or left out. The full chains were built here from the parent and the listed change. Inactive controls read about 0.05.

B1: TEV protease; numbered along this chain (parent)
chain: MGESLFKGPRDYNPISSSICHLTNESDGHTTSLYGIGFGPFIITNKHLFRRNNGTLVVQSLHGVFKVKDTTTLQQHLVDGRDMIIIRMPKDFPPFPQKLKFREPQREERICLVTTNFQTKSMSSMVSDTSCTFPSGDGIFWKHWIQTKDGQCGSPLVSTRDGFIVGIHSASNFTNTNNYFTSVPKNFMELLTNQEAQQWVSGWRLNADSVLWGGHKVFMVKPEEPFQPVKEATQL

Variants of: B1
Test: raw area under fraction-flipped curve 0-4 h after induction (AUC4h, not background-subtracted), DNA-recorder readout of cleavage of the substrate (dimensionless); higher = more cleavage of the substrate by the protease variant
Details: temperature: 34 °C; time window: 0-4 h after rhamnose induction
Description: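 In vivo DNA recorder in E. coli TOP10(DE3) ΔrhaA at 34 °C. Each TEVp single-site mutant (parent TEVp 0) is paired with a single-site variant of the 7-mer TEVs (canonical ENLYFQ|S). The substrate sits between flexible linkers in a Bxb1-sfGFP-TEVs-SsrA fusion, so cleavage stabilises Bxb1 and speeds flipping of a recombination array, read by NGS. The value is the raw area under the fraction-flipped curve over 0-4 h after rhamnose induction (AUC4h), with ≥20 reads per time point. It is not background-subtracted; inactive controls average about 0.047.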
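Further: Bxb1 expression induced with 0.2% (w/v) L-rhamnose at OD600 near 0.5, cultures sampled hourly, flipped fraction per protease–substrate barcode pair counted by paired-end Illumina sequencing.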

| Variant | area with substrate ENLYFAS | area with substrate ENLYFDS | area with substrate ENLYFES | area with substrate ENLYFFS | area with substrate ENLYFIS | area with substrate ENLYFKS | area with substrate ENLYFMS | area with substrate ENLYFNS | area with substrate ENLYFPS | area with substrate ENLYFRS | area with substrate ENLYFSS | area with substrate ENLYFTS | area with substrate ENLYFWS | area with substrate ENLYFHS | area with substrate ENLYFLS | area with substrate ENLYFVS | area with substrate ENLYFCS | area with substrate ENLYFYS | area with substrate ENLYFGS |
| --- | --- | --- | --- | --- | --- | --- | --- | --- | --- | --- | --- | --- | --- | --- | --- | --- | --- | --- | --- |
| MGESLFKGPRDYNPISSSICHLTNESDGHTTSLYGIGFGPFIITNKHLFRRNNGTLVVQSLHGVFKVKDTTTLQQHLVDGRDMIIIRMPKDFPPFPQKLKFREPQREERICLVTTNFQTKSMSSMVSDTSCTFPSGDGIFWKHWIQTKDGQCGSPLVSTRDGFIVGIHSASNFTNTNNYFTSVPKNFMELLTNQEAQQWVSGWRLNADSVLWGGHKVFMVLPEEPFQPVKEATQL [K221L] | 0.0558 | 0.0377 | 0.0774 | 0.0727 | 0.0558 | 0.0671 | 0.0563 | 0.0666 | 0.0576 | 0.0617 | 0.0443 | 0.0732 | 0.0591 |  |  |  |  |  |  |
| MGESLFKGPRDYNPISSSICHLTNESDGHTTSLYGIGFGPFIITNKHLFRRNNGTLVVQSLHGVFKVKDTTTLQQHLVDGRDMIIIRMPKDFPPFPQKLKFREPQREERICLVTTNFQTKSMSSMVSDTSCTFPSGDGIFWKHWIQTKDGQCGSPLVSTRDGFIVGIHSASNFTNTNNYFTSVPKNFMELLTNQEAQQWVSGWRLNADSVLWGGHKVFMVSPEEPFQPVKEATQL [K221S] | 0.0573 |  | 0.0538 | 0.0767 | 0.0556 | 0.0558 | 0.0459 | 0.0609 | 0.0545 |  |  |  | 0.0941 | 0.0616 | 0.0649 | 0.0645 |  |  |  |
| MGESLFKGPRDYNPISSSICHLTNESDGHTTSLYGIGFGPFIITNKHLFRRNNGTLVVQSLHGVFKVKDTTTLQQHLVDGRDMIIIRMPKDFPPFPQKLKFREPQREERICLVTTNFQTKSMSSMVSDTSCTFPSGDGIFWKHWIQTKDGQCGSPLVSTRDGFIVGIHSASNFTNTNNYFTSVPKNFMELLTNQEAQQWVSGWRLNADSVLWGGHKVFMVKPEEPFQPVKEATSL [Q234S] | 0.0577 |  | 0.0549 | 0.0799 | 0.0589 |  | 0.0702 | 0.0675 | 0.0654 | 0.0597 |  | 0.0542 | 0.0582 | 0.0468 |  | 0.0622 | 0.0521 | 0.0583 |  |
| MGESLFKGPRDYNPISSSICHLTNESDGHTTSLYGIGFGPFIITNKHLFRRNNGTLVVQSLHGVFKVKDTTTLQQHLVDGRDMIIIRMPKDFPPFPQKLKFREPQREERICLVTTNFQTKSMSSMVSDTSCTFPSGDGIFWKHWIQTKDGQCGSPLVSTRDGFIVGIHSASNFTNTNNYFTSVPKNFMELLTNQEAQQWVSGWRLNADSVLWGGHKVFMVKPEEPFQPVKEATTL [Q234T] | 0.0407 | 0.0514 | 0.0631 | 0.0673 | 0.0544 | 0.0714 | 0.0725 |  | 0.0533 | 0.0649 | 0.0693 |  | 0.0598 | 0.0713 | 0.0684 |  |  | 0.0626 |  |
| MGESLFKGPRDYNPISSSICHLTNESDGHTTSLYGIGFGPFIITNKHLFRRNNGTLVVQSLHGVFKVKDTTTLQQHLVDGRDMIIIRMPKDFPPFPQKLKFREPQREERICLVTTNFQTKSMSSMVSDTSCTFPSGDGIFWKHWIQTKDGQCGSPLVSTRDGFIVGIHSASNFTNTNNYFTSVPKNFMELLTNQEAQQWVSGWRLNADSVLWGGHKVFMVKPEEPFQPVKEATVL [Q234V] | 0.0578 | 0.0549 | 0.0546 |  | 0.0542 | 0.0678 | 0.0595 | 0.066 | 0.0404 | 0.0486 |  | 0.0577 | 0.0619 | 0.0572 | 0.0643 | 0.0896 | 0.0511 |  |  |
| MGESLFKGPRDYNPISSSICHLTNESDGHTTSLYGIGFGPFIITNKHLFRRNNGTLVVQSLHGVFKVKDTTTLQQHLVDGRDMIIIRMPKDFPPFPQKLKFREPQREERICLVTTNFQTKSMSSMVSDTSCTFPSGDGIFWKHWIQTKDGQCGSPLVSTRDGFIVGIHSASNFTNTNNYFTSVPKNFMELLTNQEAQQWVSGWRLNADSVLWGGHKVFMVKPEEPEQPVKEATQL [F226E] | 0.0574 | 0.0448 | 0.0696 | 0.0556 | 0.0532 | 0.0477 | 0.0535 | 0.0701 | 0.0511 | 0.0837 | 0.0714 | 0.0683 | 0.0486 | 0.0625 |  |  | 0.0691 | 0.0507 | 0.0518 |
| MGESLFKGPRDYNPISSSICHLTNESDGHTTSLYGIGFGPFIITNKHLFRRNNGTLVVQSLHGVFKVKDTTTLQQHLVDGRDMIIIRMPKDFPPFPQKLKFREPQREERICLVTTNFQTKSMSSMVSDTSCTFPSGDGIFWKHWIQTKDGQCGSPLVSTRDGFIVGIHSASNFTNTNNYFTSVPKNFMELLTNQEAQQWVSGWRLNADSVLWGGHKVFMVKPEEPGQPVKEATQL [F226G] | 0.0475 | 0.0543 | 0.0738 |  | 0.0571 | 0.0531 | 0.0684 | 0.0795 | 0.057 | 0.0747 | 0.058 | 0.0481 | 0.0626 |  | 0.0572 | 0.0647 |  | 0.0596 | 0.054 |
| MGESLFKGPRDYNPISSSICHLTNESDGHTTSLYGIGFGPFIITNKHLFRRNNGTLVVQSLHGVFKVKDTTTLQQHLVDGRDMIIIRMPKDFPPFPQKLKFREPQREERICLVTTNFQTKSMSSMVSDTSCTFPSGDGIFWKHWIQTKDGQCGSPLVSTRDGFIVGIHSASNFTNTNNYFTSVPKNFMELLTNQEAQQWVSGWRLNADSVLWGGHKVFMVKPEEPQQPVKEATQL [F226Q] | 0.0585 | 0.0731 | 0.0738 | 0.0565 | 0.064 | 0.0565 | 0.0697 |  |  |  |  |  | 0.0631 | 0.0401 | 0.0532 | 0.0627 |  | 0.0355 | 0.0555 |
| MGESLFKGPRDYNPISSSICHLTNESDGHTTSLYGIGFGPFIITNKHLFRRNNGTLVVQSLHGVFKVKDTTTLQQHLVDGRDMIIIRMPKDFPPFPQKLKFREPQREERICLVTTNFQTKSMSSMVSDTSCTFPSGDGIFWKHWIQTKDGQCGSPLVSTRDGFIVGIHSASNFTNTNNYFTSVPKNFMELLTNQEAQQWVSGWRLNADSVLWGGHKVFMVKIEEPFQPVKEATQL [P222I] | 0.0611 | 0.073 | 0.0748 | 0.0608 | 0.0544 | 0.0614 |  | 0.0605 | 0.0844 | 0.0401 |  | 0.0551 | 0.0386 |  | 0.0774 | 0.0654 | 0.0559 | 0.0287 | 0.0525 |
